Source: the supplement of paper PMC3334620
Whole data set: some 33,000 sequences, median “E-score (-0.5 to 0.5)” near -0.036, cut for the highest 2% near 0.37. The list shows a part of the results.

target: T1, Yer064c (UniProt P40041); experiment: PBM E-score (8-mer binding enrichment) (E-score (-0.5 to 0.5)); higher = stronger / more preferred TF binding; most listed sequences are background and not binding sites; settings: protein concentration: 200 nM; construct: GST-full length
T1 sequence: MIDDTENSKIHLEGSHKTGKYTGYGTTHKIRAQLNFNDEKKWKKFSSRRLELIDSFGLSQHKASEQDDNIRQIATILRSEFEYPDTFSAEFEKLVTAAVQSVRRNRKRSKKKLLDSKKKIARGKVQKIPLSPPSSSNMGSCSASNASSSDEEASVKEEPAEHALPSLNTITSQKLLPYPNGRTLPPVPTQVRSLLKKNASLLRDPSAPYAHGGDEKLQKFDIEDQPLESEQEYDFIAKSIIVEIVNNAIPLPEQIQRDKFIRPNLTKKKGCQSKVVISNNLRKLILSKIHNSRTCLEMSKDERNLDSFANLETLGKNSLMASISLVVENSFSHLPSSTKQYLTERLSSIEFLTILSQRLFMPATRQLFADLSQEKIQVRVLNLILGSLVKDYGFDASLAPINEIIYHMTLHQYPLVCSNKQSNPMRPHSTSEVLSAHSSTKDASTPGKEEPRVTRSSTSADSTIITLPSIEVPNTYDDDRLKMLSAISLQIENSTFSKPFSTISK
Summary of the method: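 The E-score, a modified Wilcoxon-Mann-Whitney statistic, was computed by the Universal PBM Analysis Suite for every ungapped eight-base word pooled with its reverse complement. Scans behind it were normalised with masliner after bound GST-tagged yeast transcription factors were detected with fluorescent anti-GST. The proteins, at about 100-200 nM, had been applied to universal all-10-mer Agilent arrays made double-stranded by primer extension.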

Sequence	PBM E-score
CACCCCGA	0.0217
ACGAGAAG	-0.128
GTAGGATA	-0.0167
CTAGTACC	-0.00175
TAAGCATA	-0.0649
ATGAAGTC	0.281
AATCCACG	-0.0812
AAATGGTT	0.194
AATATAAC	-0.0931
CGCCCGAC	-0.0703
ATGGGCCA	-0.207
CAGTCCAA	0.0519
ACACGAGA	-0.115
ACCGAAAG	-0.0221
CATACTCG	-0.024
AGACAGCA	-0.00915
TACTACAA	0.119
AAGTGTTA	-0.0254
ACATAAAC	0.0827
AGCGGACA	-0.188
ATTAACGC	0.00813
TCGCCAGA	0.102
AATAAACC	0.0322
CTACTCGA	0.211
AATTAGCA	0.00425

Sequence	PBM E-score
TCACCGAA	0.218
ACGTGATA	-0.115
AAAAAAGA	0.00554
CCTGGACA	-0.127
GTGGTGAA	-0.0751
TGCAACCA	-0.0203
CTGCACCA	-0.0637
CCAGGCAA	-0.212
CCTAGTAC	-0.0424
AGCGAGAC	0.0409
CTTTTGTA	0.258
ACGACGGG	-0.322
CTCATGCC	0.109
CAGTAACC	0.00134
ATTCCCCA	-0.21
AACTTTGT	0.0336
CTTCTGGC	0.00174
GGTTATCA	-0.00079
CACGGGCA	-0.24
ATCACTTC	0.175
AGACCCTC	-0.118
CCCTTAAC	-0.172
GGGGGACA	-0.0893
CGTGGAAG	-0.0442
CGCCTTAA	-0.0413

Sequence	PBM E-score
GGACCTAA	-0.104
CATTCACG	0.0972
GGTGTGGA	-0.0929
AGAGGTCA	-0.0895
CACGGGGC	-0.169
CGCCGTGA	0.113
GGGTAACA	-0.0151
CACGCGTC	0.175
ATATAATA	0.045
CGCCATGC	-0.25
CAGAATGA	0.251
GAAATGAA	0.122
ATCCTTGC	-0.0894
AACCATTG	0.123
AATTACCC	-0.0514
CCAAAGCA	0.0942
CCAGAACC	-0.1
CCCTAGCA	-0.321
GCTCTGCC	-0.248
AGCTTGGG	-0.129
GGTTTGCA	0.00826
GTGTAGAA	-0.039
CTATAGAC	-0.121
CGACGAAG	0.0591
ACTACCTA	0.156

Sequence	PBM E-score
GGATTCCC	-0.34
CATTGAGA	0.118
GGGTTAAC	0.126
CCAGGTCA	-0.26
CAGCGTCA	-0.0752
AGCAAACA	-0.145
TGGCTCAA	0.332
AATCTGAT	0.249
CCTCTTAC	-0.231
CGTTCAAA	-0.1
AGTTCCTG	-0.163
CATTGCGA	0.0115
CGCTGTCA	-0.159
ACCAGTTA	0.0293
AGTGTCTC	0.045
CCGTTTAA	-0.192
AATCCTCG	-0.0311
ACAGACTC	0.269
GATGTTGC	-0.298
CACCCACG	0.0295
ATATGGCA	-0.176
GCTGCCAA	-0.251
CACACAGG	0.00713
AAATCGTA	-0.0283
GTGTGTGA	0.168

Sequence	PBM E-score
GAATGGTA	0.0652
ATGGCAAC	0.0267
GTTCTTCA	0.125
CACTGCAC	0.0241
AGTTCTTG	0.00647
CTTTTTAC	0.0105
CGGAATAA	-0.132
ATGGTAAA	0.0695
AAGATCGT	-0.0713
CAGGGTCG	-0.266
AGGTTCCG	-0.234
AAAGATCC	-0.186
CTCTTTTA	0.215
AGCCATAC	0.26
TGCACAAA	-0.0203
CCCGGATC	-0.134
ACTAGGGC	0.0527
AAGGGGGG	-0.444
ATCCAAAG	0.161
CGCCGCCG	-0.0397
CACAGCGC	-0.0415
GTCCTAAC	0.178
CAATCGTA	0.0189
GGAGGGCA	-0.304
CGGTCTAG	0.0113

Sequence	PBM E-score
CAATTTCA	-0.0656
AAAATACG	-0.00935
GACTCTAC	0.38
ATTAACCG	0.178
CAGTACTG	0.0329
ATGGATGC	-0.097
TACTGGAA	-0.0205
AAGTTAGG	-0.0353
ACTCCATC	0.204
AGTGTCAG	-0.0432
CTTAGGGA	-0.0598
ACTCGTCA	0.155
ACTTCCCC	-0.0461
TTCGACAA	0.0693
ACGTGCAT	-0.139
CTAGCACA	-0.147
CCCCAACG	0.0539
CGAGTAAC	0.101
GTGTATCA	0.223
GCTGCGGA	-0.0455
GGACCCTA	-0.355
ACAACAAG	0.0678
CAGCACAC	-0.0998
AGGTCTAA	0.0183
ACATGCCC	-0.132

Sequence	PBM E-score
ACAATCGC	-0.0362
CCCGTAGA	-0.145
ACCACGGT	-0.155
CAAGTCCG	-0.0802
AAATATGT	0.0908
AAAATACT	0.208
ATATTCAG	0.126
CCCACCAG	-0.121
ACGGGACG	-0.252
AATCAGGG	0.271
GTCAGCGA	0.166
ATGAATTG	-0.0367
GCACCCCA	-0.26
TGTGAACA	-0.185
TACGTAAA	0.0313
CATCGTAC	0.163
GTCGACAC	0.0982
CGGGTCAA	0.0197
GTGTTGGA	-0.127
CACCTTAA	-0.008
TGGTCAAA	-0.0461
CCAGCCCC	-0.235
